The record followed here is PMC9896144, “A “grappling hook” interaction connects self-assembly and chaperone activity of Nucleophosmin 1” (PNAS Nexus, 2023).

“And” between values parts separate entries of the source, which are not always exact repeats. Equal entries are not always repeated.

The data set deals with the molecule itself. Nature of the data set: native MS; each NPM1 variant alone; nESI with collision-induced dissociation, collision voltages 25 to 75 V.

B1: NPM1_(240), the NTD and the entire IDR of NPM1 (domain or fragment)
chain: not shown
notes: Nucleophosmin 1, human, NTD and entire IDR, C-terminally truncated at residue 240; exact construct and tags are in the supplementary methods; Mostly pentameric; also called NPM240; source: produced by the authors
What is called stoichiometry N is the number of molecules, sites or subunits per partner or assembly. Regarding B1, the “stoichiometry N” value was 5 and 10.
